Measured values as given in the supplement of paper PMC4466236.
In all, about 33,000 sequences were measured (“E-score (dimensionless, -0.5 to 0.5)”: median about -0.058, highest 2% from about 0.35 on). The list shows a part of the results.

These sequences were tested on MvaT (assay: PBM 8-mer E-score (mean of HK and ME arrays) (E-score (dimensionless, -0.5 to 0.5)); higher = stronger relative binding preference; most listed sequences are background and not binding sites).
Summary of the method: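 Full-length P. aeruginosa MvaT carrying an N-terminal glutathione S-transferase tag was tested by protein binding microarray following a previously described protocol. Two universal double-stranded 60-mer arrays, ME and HK, were used, each with a constant 25-mer primer region and a variable 35-mer region covering all 8-mers. The rank-based E-score is the mean of the two arrays, parsed with a custom script. Its range runs from -0.5 to 0.5 for each 8-mer.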

| Sequence | PBM 8-mer E-score |
| --- | --- |
| GTCGTTAA | 0.0615 |
| CTTCCATC | -0.132 |
| GATCTTGC | 0.0159 |
| CGACCAGA | -0.0821 |
| ATCAGTTG | 0.0552 |
| AAGCGCGA | -0.0717 |
| GACATAGC | -0.277 |
| ATCGCACG | -0.00549 |
| GAGCGATC | -0.187 |
| TCGGCAAA | -0.0307 |
| AATAGACT | 0.194 |
| ACTCTCCC | -0.09 |
| ACCAAGGA | -0.224 |
| ATCGGGGC | -0.228 |
| CAGTACTA | 0.148 |
| CCGTGTAC | -0.053 |
| ATAACCCC | -0.0667 |
| ACATGAGT | 0.0118 |
| ACTTGAGC | -0.0597 |
| GATTTTAC | 0.175 |
| GTCGTGGA | 0.039 |
| AATTCCTC | 0.0211 |
| CCTATATC | 0.0838 |
| TCTGCGCA | -0.00775 |
| CTCATAAG | -0.122 |

| Sequence | PBM 8-mer E-score |
| --- | --- |
| AGAGGTAC | -0.211 |
| ACAAGACC | -0.123 |
| AAGTAGAA | 0.147 |
| ACCAGGAG | -0.239 |
| CGAAATAG | 0.122 |
| CTCGAAGC | -0.235 |
| ATATAGTA | 0.399 |
| GCCGCGAA | -0.168 |
| CTAATAGA | 0.184 |
| GACGAAGC | -0.298 |
| GGAACGAC | -0.175 |
| CATCCCCC | -0.266 |
| CGTCCGAC | -0.213 |
| CATATTGA | 0.264 |
| AGCCCGGA | -0.201 |
| CGGTGCTA | -0.21 |
| CATCTAAC | 0.163 |
| CAAACGCA | -0.107 |
| CATTGGAG | -0.146 |
| AATGACTC | 0.0269 |
| GTAACTAA | 0.303 |
| CGGGTGCA | -0.19 |
| CAGTGGGC | -0.254 |
| CAATGGCC | -0.244 |
| GACATCAC | -0.218 |

| Sequence | PBM 8-mer E-score |
| --- | --- |
| CCCCTGCA | -0.3 |
| CTCTGTCC | -0.159 |
| CATCACGA | -0.161 |
| ATACATTC | 0.304 |
| CTAGGCAA | -0.111 |
| GACTTGCC | -0.133 |
| AATGACAG | 0.0142 |
| ACAAGAGA | 0.105 |
| ACTTCCTA | -0.0421 |
| CGTTAGAA | 0.0275 |
| GCAGCACC | -0.0878 |
| ACACTAAA | 0.291 |
| AGCGCGTC | -0.087 |
| AATGTCGT | 0.00353 |
| GGCCGCAA | -0.302 |
| CGAACGTA | -0.0637 |
| CCATGTCC | -0.145 |
| CTGGGTCC | -0.306 |
| AGAGACAC | 0.00422 |
| ACGTAAAT | 0.241 |
| GCGAACCC | -0.157 |
| AGAAAACT | 0.0299 |
| ACGGACCC | -0.151 |
| ACCGATCG | -0.178 |
| AGTCATAT | 0.179 |

| Sequence | PBM 8-mer E-score |
| --- | --- |
| CGACAGGA | -0.217 |
| AAGCTTAG | -0.0258 |
| TCTGAGCA | -0.179 |
| ACCCTATC | -0.105 |
| GAGACGTA | -0.125 |
| ATTTGGAG | -0.0776 |
| ACATTAAA | 0.359 |
| CCTGTATA | 0.139 |
| CGTACTCC | -0.275 |
| CCTATTTC | 0.0116 |
| AGGGATTG | -0.0323 |
| GCGCGGTA | -0.012 |
| ACACTACC | 0.0946 |
| TACCTCCA | -0.0216 |
| AGTGCTAA | 0.0869 |
| GTCAGCCA | -0.276 |
| AACCTTAA | 0.113 |
| GGGGCTAA | -0.105 |
| GGGTGCTA | -0.16 |
| ATATAGGC | 0.242 |
| ACCGAAAA | 0.114 |
| CAACAAGC | -0.0993 |
| ACAGCGAG | -0.176 |
| CCACGTGA | -0.119 |
| TGATTTAA | 0.347 |

| Sequence | PBM 8-mer E-score |
| --- | --- |
| AAAGTCTC | 0.128 |
| GCAATTGC | 0.195 |
| AACGTGGG | -0.184 |
| GGATTGTA | 0.094 |
| ACGGCGCC | -0.169 |
| CCTCTCGA | -0.199 |
| ATGCTCTG | -0.131 |
| AGCATCCG | -0.292 |
| CAATGTTC | -0.0136 |
| GGGACTTA | 0.109 |
| CTACGAAG | -0.109 |
| CAACCCTG | -0.133 |
| ACCTACGT | -0.102 |
| ATCGCACA | 0.126 |
| GCGCATGA | -0.0441 |
| CATGCACA | -0.000712 |
| GTTCATCA | -0.00275 |
| CTGATATA | 0.358 |
| GCAGATAC | -0.161 |
| AGCACTAG | -0.0135 |
| AGCTGACT | -0.113 |
| CTGTAGTA | 0.0877 |
| CTGCGAAA | -0.0653 |
| CGATCACC | -0.196 |
| ACGACTCT | 0.0428 |

| Sequence | PBM 8-mer E-score |
| --- | --- |
| CATCTGGA | -0.234 |
| AACGTGCA | 0.0721 |
| GATAGCCC | -0.255 |
| CCGGCGTA | -0.0719 |
| GATTTTTA | 0.133 |
| CCTTCGAG | -0.305 |
| CGGTAGCC | -0.317 |
| CTGACTAA | 0.0191 |
| GGGTATAA | 0.258 |
| CGATACCA | -0.105 |
| ACATTCTA | 0.162 |
| AACCGTGC | -0.122 |
| CCAATAGA | -0.0274 |
| CACTCTGA | -0.05 |
| CAGTTCGA | 0.0448 |
| ATTGTTGG | 0.14 |
| AGTGGGAA | -0.142 |
| CTGTATCA | 0.0667 |
| GAAGAATC | -0.0213 |
| GAGGCTGC | -0.316 |
| CGAGCCCC | -0.313 |
| GACTACCA | -0.139 |
| CCGGGTAA | -0.191 |
| ATTCCCTG | -0.116 |
| CGCCTGAC | -0.314 |

| Sequence | PBM 8-mer E-score |
| --- | --- |
| GTCGAGCA | -0.194 |
| GATCCGCC | -0.198 |
| ACTGTGGA | -0.1 |
| AGGGAGGA | -0.202 |
| AAGCGCAA | 0.148 |
| AGACCAGA | -0.0764 |
| GTAGCTAC | -0.1 |
| CCGCCTAG | -0.263 |
| AATGGTCC | 0.006 |
| AGCAGTAG | -0.0568 |
| CGGAACTA | 0.0106 |
| ATTGCTAA | 0.2 |
| CACATTAG | 0.162 |
| GAATATCC | 0.0901 |
| AGACGACT | -0.159 |
| GGATATCC | 0.0153 |
| CTTGGATC | -0.189 |
| ACGCAACT | 0.159 |
| GAAGATAA | 0.0746 |
| CAAGTCAG | -0.0705 |
| AACTTAAG | 0.333 |
| AGGGAAAG | 0.00229 |
